Data on 114 molecules can be found in PubChem BioAssay AID1240 (Sanford-Burnham Center for Chemical Genomics, 2008).

Hit rate of the full screen: of about 50,000 compounds, about 800 (1.6%) showed an effect of 50% or more. The list shows a part of the results.

The assay has as its target Bcl-2-like protein 10 (Homo sapiens) (UniProt Q9HD36). Description: TR3 peptide-Bcl-B binding displacers, biochemical primary FP assay, phenotype converters (AID 1240).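 Further: 0% = Bcl-B with tracer peptide and DMSO and 100% = tracer peptide lacking Bcl-B.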 The note with it: GST-Bcl-B / FITC-TR3 peptide fluorescence polarization; stronger effect = higher value; compound at 3.75 mg/L. Background: Polarisation of emitted light reports the rotation of a fluorescent probe.
Sequence of UniProt Q9HD36 (Q9HD36 whole entry, looked up): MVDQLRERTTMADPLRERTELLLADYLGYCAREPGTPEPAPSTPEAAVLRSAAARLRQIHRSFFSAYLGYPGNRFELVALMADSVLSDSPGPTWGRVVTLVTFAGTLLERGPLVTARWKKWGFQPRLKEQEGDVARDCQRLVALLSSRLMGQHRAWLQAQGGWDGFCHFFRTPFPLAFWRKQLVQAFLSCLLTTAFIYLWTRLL
Take `COC(=O)C1=C(C)NC2=C(C(=O)CC(c3ccccc3)C2)C1c1ccc(Cl)cc1` (centres undefined): the displacement is -5.3%.
Next, `O=C(c1ccncc1)N1CCN(C2CCCCC2)CC1`: -3.8%; `O=C(/C=C/Nc1ccccc1F)c1ccc(Br)cc1`: 85.6%.
Next, `CCOc1ccc(S(=O)(=O)Nc2ccc(Cl)cc2)cc1`: 11.1%; `O=C(NC(=Nc1nc2ccccc2o1)NC(=O)c1ccccc1)c1ccccc1`: -0.2%; `Cc1cc(NCc2ccco2)nc2ccccc12`: 1.4%.
To `O=C(NC(c1ccccc1)c1ccccc1)c1ccc([N+](=O)[O-])cc1Cl` belongs 3.3%; to `CC(=O)Nc1ccc(S(=O)(=O)N(c2cccnc2)S(=O)(=O)c2ccc(NC(C)=O)cc2)cc1`, 12.5%.
For `CC(C)NC(=O)c1cnn2c(C(F)(F)F)cc(-c3ccc(F)cc3)nc12`, the displacement amounted to 11.6%.
To `O=C(COc1ccccc1)N1CCN(C(=O)c2ccc(F)cc2)CC1` belongs -1.8%.
With `CC(C)=C1C2C=CC1C1C(=O)N(c3ccc(F)cc3)C(=O)C21` (centres undefined), the displacement came to 6.6%.
Turning to `COc1ccc(/C=C/C(=O)N(C)C2CCCCC2)cc1Br`, the displacement is 11%.
For `O=C(Nc1ccc([N+](=O)[O-])cc1Cl)c1cccnc1`, the displacement is -1.7%.
To `COc1ccccc1CNC(=O)c1ccc(CN(c2ccccc2)S(=O)(=O)c2ccccc2)cc1` belongs 3.3%; to `O=C(O)c1ccccc1/C=C1/SC(=S)N(c2ccc(F)cc2)C1=O`, -3.6%.
Turning to `Cc1ccc(NC(=O)c2ccc(C3SCC(=O)N3Cc3ccccc3)cc2)c(C)c1` (centres undefined), the displacement was -3.6%.
As for `O=c1c2ccc(Br)c3cccc(c32)c2nc3cccc4cccc(c43)n12`, the displacement amounted to 7.1%.
Next, `CN1CCN(C2CC(=O)N(c3ccc(N4CCOCC4)cc3)C2=O)CC1` (centres undefined): -9.5%; `CCn1cc(C(=O)NN)c(=O)c2cc(Br)ccc21`: 20.2%.
Take `COc1ccc2c(c1)CC/C(=C/Nc1ccc3c(c1)OCO3)C2=O`: the displacement came out at 3.5%.
To `CC(C)(C)C(=O)c1no[n+]([O-])c1C(=O)C(C)(C)C` belongs -0.4%.
Next, `O=C1/C(=C\C=C\c2ccc([N+](=O)[O-])cc2)SC(=S)N1NS(=O)(=O)c1ccccc1`: 39.9%; `C=CCN1C(=O)/C(=C\C=C\c2ccccc2)SC1=S`: 6.3%; `CN(c1ccccc1)c1ccc(C2NN=C(c3ccccc3)S2)cc1` (centres undefined): 4.4%.
Take `O=C(Nc1ccccc1)C1(S(=O)(=O)c2ccccc2)CC1`: the displacement stood at 6.5%.
Regarding `CCN(CC)c1ccc(NC(=O)c2cc(Br)ccc2Cl)cc1`, the displacement is 16.4%.
Next, `Cc1ccccc1OCc1nc(-c2cccnc2)no1`: -3.1%.
To `COc1cc(/C=N/N=c2\sc3ccccc3n2C)ccc1O` belongs 9.8%; to `C=CCN1C(=O)/C(=C\c2ccc(-c3cccc(Cl)c3)o2)SC1=S`, 1.4%.
To `Nc1cccc(C(=O)c2cccc(N)c2)c1` belongs 4.3%; to `CCOC(=O)COc1ccc(/C=N\n2nnnc2N)cc1OC`, 0.3%; to `O=C(c1ccc(Cl)cc1)N1CCN=C1c1ccccc1`, 14.8%.
Regarding `CCOc1ccc(N(CC(=O)Nc2cc(C)cc(C)c2)S(C)(=O)=O)cc1`, the displacement was determined as 4.3%.
To `COc1ccccc1N1CCN(C(=O)c2ccco2)CC1` belongs -3.5%; to `CN1CCN(CCCCOc2cccc3ccccc23)CC1`, -6.4%.
To `O=C(O)CCC(=O)N1N=C(c2ccc(Br)cc2)CC1c1ccccc1` (centres undefined) belongs 14.4%; to `C/C(=N\NC(=O)c1cc(C2CC2)[nH]n1)c1ccc([N+](=O)[O-])cc1`, -10.1%.
`COc1cccc(/C=N/Nc2nc(C)cc(=O)[nH]2)c1O`: the displacement worked out at 13.4%.
As for `Cc1c(NC(=O)c2cc(-c3ccccc3)nc3ccccc23)cccc1[N+](=O)[O-]`, the displacement is -5.7%.
For `O=C(O)CN=C(NS(=O)(=O)c1ccccc1)c1ccccc1`, the displacement stood at 8.8%.
As to `O=C(NNc1nc(-c2ccccc2)cc(-c2ccccc2)n1)Nc1ccccc1`, the displacement was -5.9%.
Next, `O=C(CCCOc1ccccc1)Nc1ccccc1[N+](=O)[O-]`: -3.8%.
To `COC(=O)C(NC(=O)c1ccccc1Br)C(C)C` (centres undefined) belongs -0.9%; to `COc1cc(Br)c(CCNC(=O)c2ccc(Cl)cc2)cc1OC`, 4%.
As for `Cc1cccc(-n2c(O)c(C3=c4ccccc4=NC3=O)sc2=O)c1`, the displacement was determined as 10.3%.
To `COc1ccc(C(=O)NCCC(C)C)cc1[N+](=O)[O-]` belongs 3%.
To `Cc1ccccc1C(=O)Nc1cc(C(N)=O)c(Cl)cc1Cl` belongs 0.6%; to `COc1ccccc1C(=O)OC(C(=O)c1ccccc1)c1ccccc1` (centres undefined), -10.5%.
For `COc1cccc(OC)c1C(=O)c1ccccc1`, the displacement is 9.2%.
To `Cc1ccc(C(=O)O/N=C(/c2nonc2N)N2CCOCC2)cc1` belongs 9.1%; to `COc1ccc(C(=O)N2CCN(C(=O)c3cccc(Cl)c3)CC2)cc1OC`, -7.4%.
Regarding `Nn1c(Nc2ccccc2)nc2ccccc2c1=O`, the displacement is -15.5%.
Next, `Brc1ccc(/C=N/N2CCN(c3ccccc3)CC2)s1`: 5.7%; `Cc1ccc(S(=O)(=O)N=Nc2c(O)[nH]c3ccc(Br)cc23)cc1C`: 10.9%.
As for `COc1ccc2nc(N/C(N)=N/S(=O)(=O)c3ccc(C)cc3)nc(C)c2c1`, the displacement is 5.2%.
As to `O=C(O)C1C2C=CC(C3CC23)C1C(=O)Nc1ccccc1Cl` (centres undefined), the displacement turned out to be 3.9%.
For the molecule `O=C(CCNc1cc(Cl)cc(Cl)c1)c1ccco1`, the displacement was -15.8%.
With `COC(=O)C1=C(C)N(Cc2ccco2)C(=O)/C1=C\c1ccc(O)cc1`, the displacement is -0.9%.
Consider `COc1ccc(-n2c(=S)[nH]c3nc4c(cc3c2=O)COC(C)(C)C4)cc1`, for which the displacement is -8.6%.
In the case of `CN(C)c1ccc(/C=N/N2C(=O)CSC2=S)cc1`, the displacement was -18.8%.
Next, `O=C(NCCOc1ccccc1F)c1ccc(Br)cc1`: 12.8%; `COc1ccc(O)c(CN2CCN(Cc3ccc([N+](=O)[O-])cc3)CC2)c1`: 2.9%.
As to `O=C(NCc1ccc(Cl)cc1)C(=O)Nc1cccc2ccccc12`, the displacement is -6%.
With `C=CCN1C(=O)/C(=C2/C=Cc3cc(C)ccc3N2CC)SC1=S`, the displacement turned out to be 15.9%.
Next, `COc1ccc(N(CC(=O)Nc2ccccc2C)S(C)(=O)=O)cc1`: 0.6%; `Cc1ccc(/C=C2\SC(=S)N(CCC(=O)OCCN(C)C)C2=O)cc1`: 13.1%; `O=C(N/N=C/c1cccc([N+](=O)[O-])c1)c1cc[n+](CCO)cc1`: -1.1%.
In the case of `O=C(c1nn2c(c1Cl)NC(c1ccc(F)cc1)CC2C(F)(F)F)N1CCN(Cc2ccccc2)CC1` (centres undefined), the displacement is 13.2%.
As for `COc1c(Cl)cc(C(=O)N2CCN(c3ccc([N+](=O)[O-])c(NC4CC4)c3)CC2)cc1Cl`, the displacement was found to be 9.7%.
Next, `O=C(NCc1ccccc1)C(O)(c1ccc(F)cc1)c1ccc(F)cc1`: -12.1%; `CC(C)(C)NC(=O)CCNS(=O)(=O)c1ccccc1[N+](=O)[O-]`: 10.5%.
For `COc1ccc(-c2nnc(NC(=O)c3ccccc3Br)s2)cc1OC`, the displacement is -12.1%.
On to `NC(=O)SCC(=O)Nc1ccccc1O`, for which the displacement turned out to be 4.9%.
To `COc1ccccc1CNC(=O)c1cccc([N+](=O)[O-])c1C` belongs -7.3%.
Consider `COc1cccc(-n2sc3c(c2=S)-c2ccccc2NC3(C)C)c1`, for which the displacement was -6.6%.
Turning to `CCOC(=O)c1cc(-c2ccc(Cl)cc2)nc2ccccc12`, the displacement was -8.6%.
In the case of `Cc1ccc(-c2cc(C(=O)N3CC(C)CC(C)C3)c3ccccc3n2)cc1C` (centres undefined), the displacement worked out at 0.3%.
To `CCCC(=O)Nc1cccc(C(=O)Nc2ccc(C(=O)O)cc2)c1` belongs 6.8%; to `COc1ccccc1C/C(N)=N/OC(=O)c1ccc(C)c([N+](=O)[O-])c1`, 8.7%.
For `c1ccc2cc(Cn3cnc4ccccc43)ccc2c1`, the displacement was -17.8%.
On to `CCC1(O)C(C)C(c2ccc(Cl)cc2)NC(c2ccc(Cl)cc2)C1C` (centres undefined), for which the displacement came out at 6.1%.
To `O=c1/c(=C/c2ccc3c(c2)OCO3)sc2nc3ccccc3n12` belongs 69.3%; to `COc1ccc(C2C3=C(CCCC3=O)OC3=C2C(=O)CCC3)cc1`, 6.9%.
As for `O=CN1CCN(C(=O)c2ccc(I)cc2)CC1`, the displacement was -3.9%.
Regarding `C=CCNC(=O)C(=O)NCc1ccc(Cl)cc1Cl`, the displacement stood at 12.4%.
Turning to `OCCCc1nc2ccccc2n1Cc1ccccc1`, the displacement was 2.4%.
Consider `CC1C(C(=O)N(C=O)c2ccccc2F)C2C=CC1C21CC1` (centres undefined), for which the displacement is -11.7%.
To `O=C(COc1ccc(/C=N/NS(=O)(=O)c2ccccc2)cc1)Nc1cccc(Cl)c1` belongs 5.1%; to `O=C(Nc1ccccc1Cl)c1ccccc1C(F)(F)F`, -8%.
Next, `Cc1ccc(S(=O)(=O)NC(C)C2C3CC4CC(C3)CC2C4)c(C)c1` (centres undefined): 2%; `Cc1c(OC(C)C(=O)O)ccc2c3c(c(=O)oc12)CCC3` (centres undefined): 10%.
To `CCN(CC)C(=O)c1cc(-c2ccc(OC)cc2)nc2ccccc12` belongs -2.5%; to `CC(Oc1ccc(Cl)cc1Cl)C(=O)NCCN(C)C` (centres undefined), 10.5%; to `Cc1ccc(C2=C(C#N)C(N)=C(C#N)C3=CCCC32)c(C)c1` (centres undefined), 34.7%.
For the molecule `COc1ccccc1C(=O)N/C(=C\c1ccc(Br)cc1)c1nc2ccccc2[nH]1`, the displacement was -0.9%.
As to `COc1ccc(Nc2cc(C)nc(-n3nc(C)cc3C)n2)cc1`, the displacement was found to be 12.1%.
To `CCCOc1ccc(Cn2ccnc2)cc1[N+](=O)[O-]` belongs 4.5%.
Take `COc1ccc(-c2csc(Nc3ccccc3)n2)cc1`: the displacement was 7.3%.
To `O=C1c2ccccc2NC(c2c(Cl)cccc2Cl)N1Cc1ccco1` (centres undefined) belongs 11.4%.
Take `O=C(O)CSc1nncc2ccccc12`: the displacement is 3.8%.
Consider `Fc1ccc(NC(=S)Nc2ccc(Oc3ccccc3)cc2)cc1`, for which the displacement came out at 0.2%.
Next, `O=C(COc1ccc(Br)cc1)Nc1ccc(N2CCOCC2)cc1`: -3.5%; `COc1ccc(/C(N)=N/OC(=O)COc2ccccc2)cc1`: 12.9%; `CCCC1(O)CC(c2ccccc2)NC(c2ccccc2)C1CC` (centres undefined): 10%.
Consider `O=C1Nc2c(c3ccccc3oc2=O)Nc2ccccc21`, for which the displacement stood at 0.7%.
Next, `O=C(Nc1cccc(I)c1)c1ccccc1C(F)(F)F`: 0.9%; `CN1C(=O)/C(=N/OC(=O)c2ccc(Cl)cc2Cl)c2ccccc21`: -8.5%; `C/C(=C1/C(=O)N(c2ccc([N+](=O)[O-])cc2)N=C1c1ccccc1)N(C)C`: -10.2%.
Next, `CC(C)Oc1ccc(Cc2c(O)[nH]c(=S)[nH]c2=O)cc1`: -1.9%; `O=c1[nH]c(=O)n(-c2ccccc2F)c(O)c1C=NCc1ccccc1F`: 4.2%.
With `Cc1ccc(NC(=O)CSC(N)=O)cc1Cl`, the displacement was found to be 4%.
As to `O=C(/C=C/c1cccc([N+](=O)[O-])c1)Nc1ccc(F)cc1`, the displacement was -6.9%.
To `CC(=O)COc1ccc2c(C(F)(F)F)cc(=O)oc2c1` belongs -9%; to `CCSc1nnc2c(n1)OC(c1ccc(C(=O)O)cc1)Nc1ccccc1-2` (centres undefined), 9.9%.
